{
  "source": "PubChem BioAssay AID504333",
  "about": "(National Center for Advancing Translational Sciences (NCATS), 2011)",
  "note": "In all, about 360,000 compounds went through this assay and about 16,000 (4.4%) were called active. Inconclusive results, whose numbers are uncertain, are shown with a selection of clear calls. Calls come from the whole dose curve; as a rule, active = well fitted inhibition curve with a large enough effect; inconclusive = small, poorly fitted or top-dose-only effect; inactive = no such curve, though single readings can be large or run the other way. Potencies beside an inconclusive call are fits to weak or partial responses and may not hold up. Potency is the fitted concentration of half-maximal effect; tags give direction and shape of the fitted curve.",
  "data": [
    {"molecular_target": "Bromodomain adjacent to zinc finger domain protein 2B (Homo sapiens) (UniProt Q9UIF8)", "sequence (Q9UIF8 whole entry, looked up, the tested form may be a part)": "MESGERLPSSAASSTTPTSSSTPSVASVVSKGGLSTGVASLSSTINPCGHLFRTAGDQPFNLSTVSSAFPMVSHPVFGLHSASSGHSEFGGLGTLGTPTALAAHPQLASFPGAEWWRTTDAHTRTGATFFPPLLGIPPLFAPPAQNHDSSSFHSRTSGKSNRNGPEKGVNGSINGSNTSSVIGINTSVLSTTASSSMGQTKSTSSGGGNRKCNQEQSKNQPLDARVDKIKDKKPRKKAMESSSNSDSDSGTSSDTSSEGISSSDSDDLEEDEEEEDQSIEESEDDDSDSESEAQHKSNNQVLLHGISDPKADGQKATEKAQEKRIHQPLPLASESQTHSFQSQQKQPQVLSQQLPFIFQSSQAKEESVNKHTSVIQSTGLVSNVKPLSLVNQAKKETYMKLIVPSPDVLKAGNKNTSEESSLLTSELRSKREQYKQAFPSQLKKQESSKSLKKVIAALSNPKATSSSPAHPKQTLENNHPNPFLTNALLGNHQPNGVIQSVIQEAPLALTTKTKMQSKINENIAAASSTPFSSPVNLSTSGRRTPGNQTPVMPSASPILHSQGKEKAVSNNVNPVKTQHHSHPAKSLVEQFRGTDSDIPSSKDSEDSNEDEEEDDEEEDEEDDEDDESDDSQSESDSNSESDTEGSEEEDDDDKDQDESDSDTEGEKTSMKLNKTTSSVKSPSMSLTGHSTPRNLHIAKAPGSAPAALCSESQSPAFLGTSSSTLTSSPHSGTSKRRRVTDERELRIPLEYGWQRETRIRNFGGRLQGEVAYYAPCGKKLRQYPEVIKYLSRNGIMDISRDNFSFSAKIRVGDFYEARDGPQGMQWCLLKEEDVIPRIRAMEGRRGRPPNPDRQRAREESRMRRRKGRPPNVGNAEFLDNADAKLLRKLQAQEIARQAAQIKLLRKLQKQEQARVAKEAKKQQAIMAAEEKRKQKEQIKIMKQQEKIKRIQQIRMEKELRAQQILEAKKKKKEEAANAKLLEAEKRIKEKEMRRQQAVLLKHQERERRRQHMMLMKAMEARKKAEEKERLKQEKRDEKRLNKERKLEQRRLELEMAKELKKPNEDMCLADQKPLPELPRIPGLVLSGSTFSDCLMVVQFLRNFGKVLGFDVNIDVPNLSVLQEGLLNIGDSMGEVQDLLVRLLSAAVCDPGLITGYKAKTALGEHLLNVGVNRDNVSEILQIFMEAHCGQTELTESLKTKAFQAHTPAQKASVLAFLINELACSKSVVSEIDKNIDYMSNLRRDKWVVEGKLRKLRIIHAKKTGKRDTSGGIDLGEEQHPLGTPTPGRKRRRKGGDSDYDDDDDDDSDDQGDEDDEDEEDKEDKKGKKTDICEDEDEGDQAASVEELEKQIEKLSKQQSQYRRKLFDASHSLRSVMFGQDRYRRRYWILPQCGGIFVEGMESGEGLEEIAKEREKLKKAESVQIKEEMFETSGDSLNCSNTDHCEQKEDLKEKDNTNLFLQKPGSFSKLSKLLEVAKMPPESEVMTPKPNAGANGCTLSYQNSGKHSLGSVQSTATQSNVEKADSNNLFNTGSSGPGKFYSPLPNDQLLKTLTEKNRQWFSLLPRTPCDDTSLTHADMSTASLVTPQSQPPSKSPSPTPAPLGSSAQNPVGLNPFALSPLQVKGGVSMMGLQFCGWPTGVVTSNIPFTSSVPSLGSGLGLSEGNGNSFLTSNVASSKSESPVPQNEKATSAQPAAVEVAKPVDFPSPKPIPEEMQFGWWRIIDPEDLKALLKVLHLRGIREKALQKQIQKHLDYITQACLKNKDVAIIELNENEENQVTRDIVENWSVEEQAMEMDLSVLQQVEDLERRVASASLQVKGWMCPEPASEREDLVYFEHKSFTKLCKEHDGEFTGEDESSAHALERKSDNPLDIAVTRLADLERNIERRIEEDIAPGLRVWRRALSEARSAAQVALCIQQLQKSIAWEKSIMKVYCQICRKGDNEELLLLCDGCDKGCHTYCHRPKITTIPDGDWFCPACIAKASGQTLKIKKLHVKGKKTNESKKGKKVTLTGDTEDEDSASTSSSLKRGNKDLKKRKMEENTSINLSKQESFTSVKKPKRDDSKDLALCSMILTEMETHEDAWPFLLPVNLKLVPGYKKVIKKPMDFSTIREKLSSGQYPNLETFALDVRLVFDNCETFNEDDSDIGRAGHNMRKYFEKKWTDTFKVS", "assay": "qHTS Assay for Inhibitors of BAZ2B; note: nearly all actives have a fitted effect of over 60% in size", "details": "AlphaScreen BAZ2B-H3K14Ac peptide displacement; series mostly up to 114 µM", "in_short": "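BAZ2B (50 nM) with biotin-H3(5-23)K14Ac peptide (50 nM) in PBS pH 7.4, 0.01% Tween-20, preformed 30 min, then compound 30 min at room temperature; top concentration 110uM. AlphaScreen streptavidin donor/nickel chelate acceptor beads (10 ug/mL final), 20 min dark, signal read.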", "values": [
      {"smiles": "COc1ccccc1N1CCN(CCCNC(=O)c2cnn(-c3ccccc3Cl)c2C2CCN(C(=O)OC(C)(C)C)CC2)CC1", "Potency": "inconclusive: 31.6 µM [inhibitor, single point]"},
      {"smiles": "O=C(NC1CCCC1)c1ccc2nc(-c3ccco3)c(-c3ccco3)nc2c1", "Potency": "inconclusive: 89.1 µM [inhibitor, single point]"},
      {"smiles": "CN(C)S(=O)(=O)N(CC(=O)Nc1ccc(F)c(F)c1)c1ccccc1", "Potency": "inconclusive: 89.1 µM [inhibitor, single point]"},
      {"smiles": "O=c1[nH]cnc2sc3c(c12)CCN(Cc1ccccc1)C3", "Potency": "inactive"},
      {"smiles": "O=C(NCCCCc1ccccc1)c1cccc([N+](=O)[O-])c1", "Potency": "inconclusive: 79.4 µM [inhibitor, single point]"},
      {"smiles": "O=C(NC(=S)Nc1ccccc1N1CCCC1)c1ccc([N+](=O)[O-])cc1", "Potency": "active: 11.2 µM"},
      {"smiles": "Cc1ccnc(Cc2ccccc2)n1", "Potency": "inactive"},
      {"smiles": "COc1nonc1NC(=O)CSc1nc2ccccc2[nH]1", "Potency": "inactive"},
      {"smiles": "NC(=O)CC(NC(=O)c1cccc(Br)c1)c1ccc(NC2CCN(Cc3ccccc3)CC2)c([N+](=O)[O-])c1", "note": "(configuration not stated)", "Potency": "inconclusive: 44.7 µM [inhibitor, partial curve]"},
      {"smiles": "CC[C@H](C)C(N)c1cn(C(CCCN=C(N)N)C(=O)N2CCNCC2)nn1", "note": "(some centres not stated)", "Potency": "inconclusive: 100 µM [inhibitor, single point]"},
      {"smiles": "Cc1ccc(C(c2nnnn2C2CCCC2)N2CCc3ccccc32)cc1", "note": "(configuration not stated)", "Potency": "inconclusive: 39.8 µM [inhibitor, partial curve]"},
      {"smiles": "Nc1sccc1C(=O)c1ccc(Cl)cc1", "Potency": "inconclusive: 44.7 µM [inhibitor, partial curve]"},
      {"smiles": "COc1ccc(S(=O)(=O)N2CCOCC2)cc1NC(=O)c1cc(C)oc1C", "Potency": "inconclusive: 89.1 µM [inhibitor, single point]"},
      {"smiles": "CCOc1ccc(CCNC(=O)COC(=O)COc2ccc(Br)cc2)cc1OCC", "Potency": "inconclusive: 79.4 µM [inhibitor, single point]"},
      {"smiles": "O=C(Nc1ccc(F)cc1)C1CCN(c2nc3ccccc3nc2C(F)(F)F)CC1", "Potency": "inactive"},
      {"smiles": "Cc1ccccc1C1c2[nH]c3ccccc3c2CCN1CCCn1cccn1", "note": "(configuration not stated)", "Potency": "inconclusive: 50.1 µM [inhibitor, partial curve]"},
      {"smiles": "Fc1ccc(C2N(c3ccccc3)C(=S)N3CCCN23)cc1", "note": "(configuration not stated)", "Potency": "inconclusive: 89.1 µM [inhibitor, single point]"},
      {"smiles": "CCOC(=O)C1CCCN(C(=O)c2sc3nc(-c4ccc(OC)cc4)cn3c2C)C1", "note": "(configuration not stated)", "Potency": "inconclusive: 79.4 µM [inhibitor, single point]"},
      {"smiles": "COc1ccc(OC)c(C2=C/C(=C/c3ccccn3)C(=O)O2)c1", "Potency": "inconclusive: 89.1 µM [inhibitor, single point]"},
      {"smiles": "N#C/C(=N\\Nc1ccccc1Cl)C(=O)c1ccccc1", "Potency": "inconclusive: 50.1 µM [inhibitor, partial curve]"},
      {"smiles": "O=C(CNC(=O)c1ccc2c(c1)OCO2)N/N=C(Br)/C=C/c1ccccc1", "Potency": "inconclusive: 63.1 µM [inhibitor, partial curve, poor fit]"},
      {"smiles": "O=C(N/N=C/c1ccccc1O)c1cc[n+]([O-])cc1", "Potency": "active: 20 µM"},
      {"smiles": "O=[N+]([O-])c1cccnc1N1CCN(c2ccc(F)cc2)CC1", "Potency": "active: 39.8 µM"},
      {"smiles": "CCN(c1cccc(C)c1)C1C(=O)c2ccccc2N1C(C)=O", "note": "(configuration not stated)", "Potency": "inconclusive: 89.1 µM [inhibitor, single point]"},
      {"smiles": "CCN(CC)c1ccc(NC(=O)CN2CCN(S(=O)(=O)c3ccc(C(C)C)cc3)CC2)cc1", "Potency": "active: 7.94 µM"},
      {"smiles": "O=C(Cn1ccc2cc(S(=O)(=O)N3CCCC3)ccc21)NCc1ccc(Cl)cc1", "Potency": "inactive"},
      {"smiles": "COc1cccc(C2C3(C#N)C(N)=NC(OC)(OC)C23C#N)c1", "note": "(configuration not stated)", "Potency": "inactive"},
      {"smiles": "CC(=O)Nc1ccc(OC(=O)c2cc([N+](=O)[O-])ccc2Cl)cc1", "Potency": "inactive"},
      {"smiles": "COc1ccc(-n2cc(C(=O)NCCc3ccc(C)cc3)c3ccccc3c2=O)cc1", "Potency": "inconclusive: 79.4 µM [inhibitor, partial curve]"},
      {"smiles": "Nc1cccc(-c2nc3ccc(C(=O)c4ccccc4)cc3[nH]2)c1", "Potency": "active: 50.1 µM"},
      {"smiles": "COc1cc(O)c(CCC(=O)c2ccc(OC)c(OC)c2)c(OC)c1", "Potency": "inconclusive: 89.1 µM [inhibitor, single point]"},
      {"smiles": "NS(=O)(=O)OCC(Cc1ccccc1)N1C(=O)c2ccccc2C1=O", "note": "(configuration not stated)", "Potency": "inactive"},
      {"smiles": "COc1ccccc1NC(=S)NCCSc1ccc(Cl)cc1", "Potency": "inactive"},
      {"smiles": "COc1ccc(OC)c(CCNC(=O)c2ccc(CS(=O)(=O)c3ccc(Br)cc3)o2)c1", "Potency": "inconclusive: 39.8 µM [inhibitor, partial curve]"},
      {"smiles": "CC1(C)Cc2c(sc(NC(=O)c3ccccc3Cl)c2C(=O)O)CO1", "Potency": "inconclusive: 79.4 µM [inhibitor, single point]"},
      {"smiles": "CCC(=O)Nc1nnc(-c2ccco2)o1", "Potency": "inconclusive: 89.1 µM [inhibitor, single point]"},
      {"smiles": "COc1ccc(SN=C2C(C)=CC(=O)C=C2C)cc1", "Potency": "inconclusive: 8.91 µM [inhibitor, full curve]"},
      {"smiles": "Cc1ccc(C(=O)NCCc2nnc3ccc(N4CCCC4)nn23)cc1", "Potency": "inactive"},
      {"smiles": "NNC(=O)CCn1nnc2ccccc21", "Potency": "inactive"},
      {"smiles": "CCOc1c(CC2C(=O)Nc3ccc(Br)cc32)cccc1OC", "note": "(configuration not stated)", "Potency": "inconclusive: 89.1 µM [inhibitor, single point]"},
      {"smiles": "Cc1cccc(NC(=O)c2cc(-c3cccnc3)nc3c(C)cccc23)n1", "Potency": "inconclusive: 70.8 µM [inhibitor, single point]"},
      {"smiles": "Cc1nc2ccc(NC(=O)c3cc([N+](=O)[O-])cc([N+](=O)[O-])c3Cl)cc2s1", "Potency": "inconclusive: 79.4 µM [inhibitor, single point]"},
      {"smiles": "COc1ccc(COc2cc(-c3cccc(OC)c3)nc3ccc(N)cc23)cc1", "Potency": "inconclusive: 35.5 µM [inhibitor, partial curve]"},
      {"smiles": "OCCN1CCN(Cc2ccc3ccccc3c2)CC1", "Potency": "active: 50.1 µM"},
      {"smiles": "O=S(=O)(c1cccc(S(=O)(=O)N2CCC(Cc3ccccc3)CC2)c1)N1CCOCC1", "Potency": "inactive"},
      {"smiles": "O=C(O)c1ccc(CNC(=O)C2CCCN2C(=O)OCc2ccccc2)cc1", "note": "(configuration not stated)", "Potency": "inactive"},
      {"smiles": "Cc1ccc(NC(=O)c2nc(S(C)(=O)=O)ncc2N(Cc2cccc(F)c2)Cc2ccco2)cc1C", "Potency": "inconclusive: 44.7 µM [inhibitor, single point]"},
      {"smiles": "O=C(NNC(=O)c1ccccc1[N+](=O)[O-])c1ccc(NS(=O)(=O)c2cccs2)cc1", "Potency": "inactive"},
      {"smiles": "Cc1ccc(C(=O)N2CCc3ccccc32)cc1[N+](=O)[O-]", "Potency": "inactive"},
      {"smiles": "CCOc1cc(/C=C2\\SC(=O)N(CC(=O)Nc3ccccc3F)C2=O)cc([N+](=O)[O-])c1O", "Potency": "active: 39.8 µM"},
      {"smiles": "COc1cccc(C(=O)CSc2nccn2C)c1", "Potency": "inactive"},
      {"smiles": "COc1ccc(Nc2nc(N3CCCC3)c3ccccc3n2)cc1", "Potency": "inconclusive: 44.7 µM [inhibitor, partial curve]"},
      {"smiles": "Cc1ccc(/C=C(\\C#N)C(=O)Nc2cccc3ncccc23)o1", "Potency": "inconclusive: 89.1 µM [inhibitor, single point]"},
      {"smiles": "CCOC(=O)C1=C(COC(=O)/C=C/c2ccco2)NC(=O)NC1C", "note": "(configuration not stated)", "Potency": "active: 50.1 µM"},
      {"smiles": "COc1cc(CNCc2ccccn2)ccc1OCc1ccc(Cl)c(Cl)c1", "Potency": "inconclusive: 44.7 µM [inhibitor, partial curve, poor fit]"},
      {"smiles": "COc1ccc(N2CCN(C(=O)C(C)(C)Oc3ccc(Cl)cc3)CC2)cc1", "Potency": "active: 39.8 µM"},
      {"smiles": "CCC(=O)NC(=S)Nc1ccc(NC(=O)c2cccnc2)cc1", "Potency": "inconclusive: 89.1 µM [inhibitor, single point]"},
      {"smiles": "N/C(=N\\OS(=O)(=O)c1ccc(Cl)cc1)c1ccccn1", "Potency": "active: 25.1 µM"},
      {"smiles": "O=C(COc1ccccc1[N+](=O)[O-])Nc1ccc2c(c1)OCO2", "Potency": "inconclusive: 79.4 µM [inhibitor, single point]"},
      {"smiles": "CC1=CC(c2ccccc2)n2nc(NC(=O)CCCC(=O)O)nc2N1", "note": "(configuration not stated)", "Potency": "active: 50.1 µM"},
      {"smiles": "COc1ccccc1C1CCN(C(=S)Nc2ccc(Br)cc2)CC1", "Potency": "inconclusive: 25.1 µM [inhibitor, full curve]"},
      {"smiles": "Cc1ccc(C(=O)Nc2ccc(N3CCOCC3)c3nonc23)cc1[N+](=O)[O-]", "Potency": "inconclusive: 70.8 µM [inhibitor, single point]"},
      {"smiles": "C#CCOCCOCCOCCNc1nc(N2CCN(C(=O)[C@H](Cc3ccc(O)cc3)n3cc(C(N)CC(C)C)nn3)CC2)nc(N2CCN(C(=O)[C@H](CCC(=O)O)n3cc(C(N)[C@H](C)CC)nn3)CC2)n1", "note": "(some centres not stated)", "Potency": "active: 70.8 µM"},
      {"smiles": "COc1cccc(N2CCN(C(=O)/C=C/c3ccco3)CC2)c1", "Potency": "active: 50.1 µM"},
      {"smiles": "O=C(CSc1nnc(-c2ccccn2)n1Cc1ccccc1)N1CCOCC1", "Potency": "inconclusive: 89.1 µM [inhibitor, single point]"},
      {"smiles": "CNC(=S)N/N=C/c1cn(CCOc2cccc(OC)c2)c2ccccc12", "Potency": "inconclusive: 25.1 µM [inhibitor, full curve]"},
      {"smiles": "O=C(COC(=O)c1ccc2ncsc2c1)Nc1ncc(Cl)cc1Cl", "Potency": "active: 50.1 µM"},
      {"smiles": "O=C(NCc1cccnc1)C1CC(c2ccccc2O)=NO1", "note": "(configuration not stated)", "Potency": "inconclusive: 89.1 µM [inhibitor, single point]"},
      {"smiles": "CCCCOC(=O)c1ccc(NC(=O)C(=O)CC(=O)c2ccc(OC)cc2)cc1", "Potency": "inconclusive: 89.1 µM [inhibitor, single point]"},
      {"smiles": "O=c1/c(=C/c2ccccn2)sc2n1CN(c1ccccc1)CN=2", "Potency": "inactive"},
      {"smiles": "O=C(O)c1cccc(-n2cccc2C=C2C(=O)c3ccccc3C2=O)c1", "Potency": "inconclusive: 39.8 µM [inhibitor, partial curve]"},
      {"smiles": "COc1ccc(/C=C(\\C#N)c2nc3ccccc3n2C)c(OC)c1", "Potency": "inactive"}
    ]}
  ]
}
